# Data as given in PubChem BioAssay AID2546 (National Center for Advancing Translational Sciences (NCATS), 2010).
# Screen size: about 310,000 compounds; about 11,000 (3.5%) were called active. The shares of active, inactive and inconclusive entries below differ from those in the screen. Calls come from the whole dose curve; as a rule, active = well fitted inhibition curve with a large enough effect; inconclusive = small, poorly fitted or top-dose-only effect, or effect the other way; inactive = flat fitted curve, though single readings scatter. Potencies of inconclusive entries are left out as doubtful fits.
# Assay: VP16 counterscreen qHTS for inhibitors of ROR gamma transcriptional activity;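 note: Gal4-VP16 expression switched on by copper sulfate through the metallothionein promoter; nearly all actives have a fitted effect of over 50% in size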
# Conditions: Drosophila S2 Gal4-VP16 UAS-luciferase, luminescence, 20 h; activity, negative = inhibition: at 53.6 µM (top of the series)
# From the text: NIH Molecular Libraries Probe Production Network [MLPCN]
# NIH Chemical Genomics Center [NCGC]
# Assay Provider: Dan Littman, New York University
# The retinoic acid-related orphan receptor (ROR) gamma is a transcription factor that has a central role in the differentiation of Th17 cells, a subset of T helper cells that secrete the inflammatory cytokines IL-17, IL-17F, and IL-22. Th17 cells have been implicated in graft versus host disease, autoimmune disease and asthma. ROR gamma is induced in naive T helper cells in the presence of TGF-beta combined with IL-6, IL-21, or IL-23, and thereafter directs the expression of the Th17 lineage cytokines. To identify nonspecific inhibitors, a Drosophila Schneider cell line was stably transfected with two vectors: a gene expressing a fusion of the Gal4 DNA binding domain and VP16 transactivation domain under the control of the metallothionine promoter and a Photinus luciferase reporter regulated by the Gal4 binding site enhancer, UAS. […] Small molecule inhibitors that inhibit components common to the RORgt and VP16 assays, such as the Gal4 DNA binding domain or the UAS luciferase reporter, will be active in both assays and thus scored as nonspecific.
# For screening, 600 cells in 4 uL/well were dispensed into white solid 1536-well plates (Grenier) using a solenoid-based dispenser. Following transfer of 23 nL compound or DMSO vehicle by a pin tool, the plates were incubated 1 hr at ambient temperature, and 1 uL/well copper sulfate (700 uM final concentration) was added. The plates were centrifuged 15 s at 1000 RPM and incubated 20 hr at ambient temperature. After addition of 1.5 uL Photinus luciferase detection reagent, the plates were incubated 10 min at ambient temperature and then read by a ViewLux (Perkin Elmer) to detect luminescence.
# % is set by controls: 0 for no effect and ±100 for the full control effect; potency is the fitted concentration of half-maximal effect; tags give direction and shape of the fitted curve.
SMILES,Potency,"activity, negative = inhibition"
Cc1cccc(NS(=O)(=O)c2ccc(C(C)(C)C)cc2)n1,"inconclusive [inhibitor, full curve]",
CCc1ccc(OCc2ccc(C(=O)O)o2)cc1,"inconclusive [inhibitor, partial curve]",
Cc1cc(Cl)c2oc(C(=O)N3CCCCC3CCN3CCCC3=O)c(C)c2c1 (stereo not drawn),"inconclusive [inhibitor, single point]",
Cc1ccc(Sc2ncccc2/C=N/O)cc1,"inconclusive [inhibitor, single point]",
COC(=O)CN(c1ccc(OCc2ccccc2)cc1)S(C)(=O)=O,,inactive: 7.85%
CC(C)(C)OC(=O)CN1C(=O)C(Sc2n[nH]c(-c3ccccc3)n2)CCc2ccccc21 (stereo not drawn),"inconclusive [inhibitor, single point]",
COc1ccc(CNC(=O)CN(Cc2ccc(Cl)cc2)C(=O)c2csnn2)cc1,,inactive: -9.14%
CC(C)(O)C#Cc1ccc(C(=O)NC2CCCCC2)s1,"inconclusive [activator, partial curve]",
Fc1cccc(/C=N/Nc2nncc3ccccc23)c1,active: 10 µM,
N#Cc1ccc(OCC(=O)N/N=C2/CC(c3ccccc3)Oc3ccccc32)cc1 (stereo not drawn),active: 11.2 µM,
S=c1[nH]nc(COc2ccccc2)n1/N=C/c1cccc(Cl)c1Cl,"inconclusive [inhibitor, single point]",
CC(C)N1C(=O)N(c2cccc(Cl)c2)C(C)(O)CC1(C)C (stereo not drawn),,inactive: -2.84%
Cc1ccc(S(=O)(=O)c2c(COC(=O)c3ccc(Cl)cc3)c(-c3ccccc3)nn2C)cc1,,inactive: 5.41%
CCOC(=O)C1=CN(c2cccc(F)c2)C=C(C(=O)OCC)C1c1cc(OC)c(O)c([N+](=O)[O-])c1,"inconclusive [inhibitor, partial curve, poor fit]",
O=C(c1ccco1)N1CCN(C(=O)C2CC(=O)N(c3ccccc3)C2)CC1 (stereo not drawn),,inactive: -1.59%
O=C(CNC(=O)c1cccc(F)c1)N/N=C/c1cc(Br)ccc1OC(=O)/C=C/c1ccco1,active: 7.94 µM,
COc1cc(CNC(C)c2ccccc2)cc(Br)c1OCc1ccccc1 (stereo not drawn),"inconclusive [inhibitor, single point]",
COc1ccc(Cc2nnc(-c3cccc(C)c3)o2)cc1OC,"inconclusive [inhibitor, full curve, poor fit]",
CCOC(=O)NC1(Nc2ccc(C)cc2)Oc2ccccc2O1,"inconclusive [inhibitor, partial curve]",
N#C/C(=C/c1cn[nH]c1-c1cccc(Br)c1)C(=O)O,,inactive: -7.34%
Cc1nc2c(Cl)cc(Cl)cc2[nH]1,"inconclusive [inhibitor, single point]",
CCOC(=O)CNC(=O)Nc1nnc(-c2ccc(OCC)cc2)o1,active: 5.62 µM,
O=c1oc(-c2ccc(Cl)c(Cl)c2)nn1-c1ccc(C(F)(F)F)cn1,,inactive: 5.55%
CC(=O)Oc1c(C)cc(OCC(O)CNC(C)C)c(C)c1C (stereo not drawn),,inactive: -3.61%

SMILES,Potency,"activity, negative = inhibition"
O=C(c1cc2ccccc2o1)N1CCN(c2ccccn2)CC1,"inconclusive [inhibitor, single point]",
COc1cc(CSC)nc(-c2ccccc2)n1,,inactive: -12.3%
COc1ccc(CCNC(=O)c2cnc3ccccc3n2)cc1,"inconclusive [inhibitor, single point]",
Oc1c(C=Nc2cccc3cccnc23)sc2ccccc12,active: 1.41 µM,
COc1ccc(NC(=O)COc2ccc(/C=N/O)cc2OC)cc1,"inconclusive [inhibitor, partial curve]",
N#CCSc1nnc(COc2ccccc2)n1-c1ccccc1,"inconclusive [inhibitor, single point]",
O=C(CN1CCC(NC(=O)Cc2ccccc2)CC1)Nc1ccccc1Br,"inconclusive [inhibitor, single point]",
Cc1cc(C)c2ccc(/C=N/O)nc2c1O,active: 6.31 µM,
CCCCn1c2ccccc2c2nnc(SCC(=O)NC3=NN=C(c4ccccc4)CS3)nc21,"inconclusive [inhibitor, single point]",
Cc1ccc(/C=C2/NC(=O)N(Cc3ccc(Br)cc3)C2=O)o1,"inconclusive [inhibitor, single point]",
O=c1oc(-c2ccccc2)cc(Cl)c1Cl,active: 10 µM,
C=C1C(=O)[C@@]23[C@H](O)C[C@@H]4C(C)(C)CC[C@H](O)[C@]4(C)[C@@H]2C[C@H](O)[C@@H]1[C@H]3O,active: 3.16 µM,
Cc1ccc(NC(=O)CCCN2C(=O)/C(=C/C=C/c3ccccc3)SC2=S)cc1,"inconclusive [inhibitor, partial curve]",
O=C(Sc1nnc(-c2ccccc2)o1)N1c2ccccc2Sc2ccccc21,"inconclusive [inhibitor, single point]",
Cc1cccc(CCN(C(=O)Cc2cccs2)C(C(=O)NC2CCCCC2)c2cccnc2)c1 (stereo not drawn),"inconclusive [inhibitor, partial curve, poor fit]",
Cc1cccc(NC(=S)N(C)C2CCCCC2)c1,active: 17.8 µM,
O=C(COc1ccc(C(=S)N2CCOCC2)cc1)Nc1ccccc1C(F)(F)F,,inactive: -11%
COc1c(C(=O)NC(=S)Nc2nnn(C)n2)cc2ccccc2c1Br,active: 3.98 µM,
CCC(C)(C)c1ccc(OCCCC[n+]2ccc(C)cc2)c(C(C)(C)CC)c1,"inconclusive [inhibitor, single point]",
Cc1cc(C)cc(OC2CCCCC2NS(=O)(=O)c2ccccc2)c1 (stereo not drawn),"inconclusive [inhibitor, single point]",
Nc1nn(-c2cccc(F)n2)cc1-c1ccc(Cl)cc1,"inconclusive [activator, full curve, poor fit]",
O=C(CCSc1ccccc1)N1CCOCC1,"inconclusive [inhibitor, single point]",
COc1cccc(-c2cccc(NC(=O)C3CCN(Cc4ccc(C)o4)CC3)c2)c1,,inactive: -1.44%
c1ccc(-n2nnnc2-c2cnc(-c3ccncc3)nc2-c2cccs2)cc1,"inconclusive [inhibitor, partial curve, poor fit]",
